Data on 27 compounds can be found in the supplement of paper PMC4604168 (melanoma cell lines).

This is one part of the list. Most values come without repeats; read them as rough.
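Further: cell number obtained by counting DAPI-stained nuclei in high-throughput microscope images with image analysis software, screen run in 1,536-well plates.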

This test has as its system MEL-HO. The experiment in a line: cell count relative to DMSO control; melanoma cells; higher = more viable cells. Particulars: library dose: low library concentration; 72 h.
`CC(=O)c1c(C)c2cnc(Nc3ccc(N4CCNCC4)cn3)nc2n(C2CCCC2)c1=O` [palbociclib] + Oc1nc(-c2ccc(C(F)(F)F)cc2)nc2c1CSCC2 [XAV939] (first compound 0.04 µM, partner dose 2 µM) displayed a cell count of 81.6%.

`Nc1ccn([C@@H]2O[C@H](CO)[C@@H](O)C2(F)F)c(=O)n1` [gemcitabine] + O=c1cc(-c2cccc3c2Sc2ccccc2S3)oc(N2CCOCC2)c1 [KU55933] (first compound 0.0004 µM, partner dose 1 µM) had a cell count of 88.4%.

On to `Nc1ncn([C@H]2C[C@H](O)[C@@H](CO)O2)c(=O)n1` [decitabine] + N#Cc1c(O)c2c(-c3ccc(-c4ccccc4O)cc3)csc2[nH]c1=O [A769662] (first compound 0.1 µM, partner dose 2 µM), for which the cell count came out at 86.5%.

`Nc1nc(F)nc2c1ncn2[C@@H]1O[C@H](CO)[C@@H](O)[C@@H]1O` [fludarabine] + CN(C)S(=O)(=O)c1ccc2c(c1)/C(=C/c1cc3c([nH]1)CCCC3)C(=O)N2 [SU6656] (first compound 0.2 µM, partner dose 0.4 µM) showed a cell count of 101%.

Compound `Nc1ncn([C@H]2C[C@H](O)[C@@H](CO)O2)c(=O)n1` [decitabine] + CCc1ccc(CCOc2ccc(CC3SC(=O)NC3=O)cc2)nc1 [pioglitazone] (first compound 0.1 µM, partner dose 2 µM) came in with a cell count of 68.8%.

Compound `CC(=O)c1c(C)c2cnc(Nc3ccc(N4CCNCC4)cn3)nc2n(C2CCCC2)c1=O` [palbociclib] + CN(NC(=O)CC(=O)NN(C)C(=S)c1ccccc1)C(=S)c1ccccc1 [STA4783] (first compound 0.04 µM, partner dose 0.006 µM) returned a cell count of 94.2%.

`CC(=O)O[C@@]12CO[C@@H]1C[C@H](O)[C@@]1(C)C(=O)[C@H](O)C3=C(C)[C@@H](OC(=O)[C@H](O)[C@@H](NC(=O)OC(C)(C)C)c4ccccc4)C[C@@](O)([C@@H](OC(=O)c4ccccc4)[C@H]21)C3(C)C` [Docetaxel] + CS(=O)(=O)CCNCc1ccc(-c2ccc3ncnc(Nc4ccc(OCc5cccc(F)c5)c(Cl)c4)c3c2)o1 [lapatinib] (first compound 0.0001 µM, partner dose 0.8 µM) had a cell count of 42%.

With `CC(=O)O[C@@]12CO[C@@H]1C[C@H](O)[C@@]1(C)C(=O)[C@H](O)C3=C(C)[C@@H](OC(=O)[C@H](O)[C@@H](NC(=O)OC(C)(C)C)c4ccccc4)C[C@@](O)([C@@H](OC(=O)c4ccccc4)[C@H]21)C3(C)C` [Docetaxel] + c1cc(-c2cnn3cc(-c4ccc(OCCN5CCCCC5)cc4)cnc23)ccn1 [Dorsomorphin] (first compound 0.0001 µM, partner dose 0.4 µM), the cell count was 46.1%.

Turning to `CO[C@H]1C[C@@H]2CC[C@@H](C)[C@@](O)(O2)C(=O)C(=O)N2CCCC[C@H]2C(=O)O[C@H]([C@H](C)C[C@@H]2CC[C@@H](OCCO)[C@H](OC)C2)CC(=O)[C@H](C)/C=C(\C)[C@@H](O)[C@@H](OC)C(=O)[C@H](C)C[C@H](C)/C=C/C=C/C=C/1C` [everolimus] + COc1cc2ncnc(Nc3ccc(Oc4ccccc4)cc3)c2cc1OC [SrcI1] (first compound 0.02 µM, partner dose 2 µM), the cell count was 83.3%.

As to `Nc1ncn([C@H]2C[C@H](O)[C@@H](CO)O2)c(=O)n1` [decitabine] + COC(=O)c1sccc1S(=O)(=O)Nc1ccc(Nc2ccccc2)cc1OC [GSK0660] (first compound 0.1 µM, partner dose 1 µM), the cell count was found to be 92.7%.

As for `Nc1nc(F)nc2c1ncn2[C@@H]1O[C@H](CO)[C@@H](O)[C@@H]1O` [fludarabine] + CCN(CC)CCCCNc1ncc2cc(-c3cc(OC)cc(OC)c3)c(NC(=O)NC(C)(C)C)nc2n1 [PD173074] (first compound 0.2 µM, partner dose 0.1 µM), the cell count turned out to be 102%.

Consider `Nc1ccn([C@@H]2O[C@H](CO)[C@@H](O)C2(F)F)c(=O)n1` [gemcitabine] + Oc1nc(-c2ccc(C(F)(F)F)cc2)nc2c1CSCC2 [XAV939] (first compound 0.0004 µM, partner dose 2 µM), for which the cell count amounted to 79.5%.

`Nc1ccn([C@@H]2O[C@H](CO)[C@@H](O)C2(F)F)c(=O)n1` [gemcitabine] + COc1ccc2c(c1)CCC1C2CCC2(C)C(NCCCCCCN3C(=O)C=CC3=O)CCC12 [U73122] (first compound 0.0004 µM, partner dose 0.4 µM): the cell count was found to be 84.1%.

Take `CC(=O)c1c(C)c2cnc(Nc3ccc(N4CCNCC4)cn3)nc2n(C2CCCC2)c1=O` [palbociclib] + O=c1cc(-c2cccc3c2Sc2ccccc2S3)oc(N2CCOCC2)c1 [KU55933] (first compound 0.04 µM, partner dose 1 µM): the cell count turned out to be 81.1%.

`CC(=O)c1c(C)c2cnc(Nc3ccc(N4CCNCC4)cn3)nc2n(C2CCCC2)c1=O` [palbociclib] + Cc1cc([N+](=O)[O-])ccc1NS(=O)(=O)c1cc(Cl)ccc1Cl [FH535] (first compound 0.04 µM, partner dose 1 µM): the cell count is 74.6%.

In turn, `Nc1ncn([C@H]2C[C@H](O)[C@@H](CO)O2)c(=O)n1` [decitabine] + CCCCCCCCCCCC1=C(O)C(=O)C=C(O)C1=O [Embelin] (first compound 0.1 µM, partner dose 1.2 µM) came in with a cell count of 88.9%.

As for `Nc1ccn([C@@H]2O[C@H](CO)[C@@H](O)C2(F)F)c(=O)n1` [gemcitabine] + CCCCCCCCCCCC1=C(O)C(=O)C=C(O)C1=O [Embelin] (first compound 0.0004 µM, partner dose 1.2 µM), the cell count was 94.7%.

In turn, `Nc1nc(F)nc2c1ncn2[C@@H]1O[C@H](CO)[C@@H](O)[C@@H]1O` [fludarabine] + CC(C)CCN1c2nc(Nc3cc(F)c(O)c(F)c3)ncc2N(C)C(=O)C1C [BID1870] (first compound 0.2 µM, partner dose 0.2 µM) yielded a cell count of 83%.

With `CO[C@H]1C[C@@H]2CC[C@@H](C)[C@@](O)(O2)C(=O)C(=O)N2CCCC[C@H]2C(=O)O[C@H]([C@H](C)C[C@@H]2CC[C@@H](OCCO)[C@H](OC)C2)CC(=O)[C@H](C)/C=C(\C)[C@@H](O)[C@@H](OC)C(=O)[C@H](C)C[C@H](C)/C=C/C=C/C=C/1C` [everolimus] + COc1ccc(-c2ccc3c(N4CCOCC4)nc(N4C[C@@H](C)O[C@@H](C)C4)nc3n2)cc1CO [KU0063794] (first compound 0.02 µM, partner dose 0.02 µM), the cell count came to 63.8%.

As for `CC(=O)O[C@@]12CO[C@@H]1C[C@H](O)[C@@]1(C)C(=O)[C@H](O)C3=C(C)[C@@H](OC(=O)[C@H](O)[C@@H](NC(=O)OC(C)(C)C)c4ccccc4)C[C@@](O)([C@@H](OC(=O)c4ccccc4)[C@H]21)C3(C)C` [Docetaxel] + CCN(CC)CCCCNc1ncc2cc(-c3cc(OC)cc(OC)c3)c(NC(=O)NC(C)(C)C)nc2n1 [PD173074] (first compound 0.0001 µM, partner dose 0.1 µM), the cell count worked out at 56.8%.

`Nc1nc(F)nc2c1ncn2[C@@H]1O[C@H](CO)[C@@H](O)[C@@H]1O` [fludarabine] + CN(NC(=O)CC(=O)NN(C)C(=S)c1ccccc1)C(=S)c1ccccc1 [STA4783] (first compound 0.2 µM, partner dose 0.006 µM) returned a cell count of 92.2%.

`Nc1ncn([C@H]2C[C@H](O)[C@@H](CO)O2)c(=O)n1` [decitabine] + c1cc(-c2cnn3cc(-c4ccc(OCCN5CCCCC5)cc4)cnc23)ccn1 [Dorsomorphin] (first compound 0.1 µM, partner dose 0.4 µM) displayed a cell count of 83.8%.

The compound `CC(=O)c1c(C)c2cnc(Nc3ccc(N4CCNCC4)cn3)nc2n(C2CCCC2)c1=O` [palbociclib] + COc1cc(N2CCC(N3CCN(C)CC3)CC2)ccc1Nc1ncc(Cl)c(Nc2ccccc2S(=O)(=O)C(C)C)n1 [NVP-TAE684] (first compound 0.04 µM, partner dose 0.08 µM) registered a cell count of 79.4%.

In turn, `CC(=O)O[C@@]12CO[C@@H]1C[C@H](O)[C@@]1(C)C(=O)[C@H](O)C3=C(C)[C@@H](OC(=O)[C@H](O)[C@@H](NC(=O)OC(C)(C)C)c4ccccc4)C[C@@](O)([C@@H](OC(=O)c4ccccc4)[C@H]21)C3(C)C` [Docetaxel] + CCCCCCCCCCCC1=C(O)C(=O)C=C(O)C1=O [Embelin] (first compound 0.0001 µM, partner dose 1.2 µM) had a cell count of 50.6%.

With `Nc1nc(F)nc2c1ncn2[C@@H]1O[C@H](CO)[C@@H](O)[C@@H]1O` [fludarabine] + NCC(=O)Nc1ccc(-n2nc(C(F)(F)F)cc2-c2ccc3c(ccc4ccccc43)c2)cc1 [OSU03012] (first compound 0.2 µM, partner dose 1 µM), the cell count was determined as 103%.

`Nc1ccn([C@@H]2O[C@H](CO)[C@@H](O)C2(F)F)c(=O)n1` [gemcitabine] + COc1cc(Nc2ncc(F)c(Nc3ccc4c(n3)NC(=O)C(C)(C)O4)n2)cc(OC)c1OC [Tamatinib] (first compound 0.0004 µM, partner dose 0.4 µM) yielded a cell count of 78.7%.

In turn, `Nc1nc(F)nc2c1ncn2[C@@H]1O[C@H](CO)[C@@H](O)[C@@H]1O` [fludarabine] + COc1cc(N2CCC(N3CCN(C)CC3)CC2)ccc1Nc1ncc(Cl)c(Nc2ccccc2S(=O)(=O)C(C)C)n1 [NVP-TAE684] (first compound 0.2 µM, partner dose 0.08 µM) gave a cell count of 90.7%.
